The results in this text go back to ChEMBL document CHEMBL1201862, “PubChem BioAssay data set” (2004).

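Dose response: 5 concentrations. Exposure: 48 h. Format: 96-well plates. Endpoint: linear interpolation; highest concentration if not reached. GI50: concentration for 50% inhibition of growth.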 The source made the active and inactive calls. Rule as the data show it: active = GI50 up to about 1.1 µM and inactive = higher. Bounds are passed on as bounds.

The test deals with NCI-H322M. The experiment in a line: DTP human tumour cell line panel, 48 h.
Take `Cc1cc(S(=O)(=O)Nc2nnc3cc(C(F)(F)F)cc(C)n23)c(S)cc1Cl`: the GI50 (as a rule, the concentration giving 50% growth inhibition) is inactive: 27.4 µM.

For `CC1(C)Oc2ccc3ccc(=O)oc3c2C(O)C1O` (stereo not drawn), the GI50 was inactive: 80.9 µM. `O=C1c2ccccc2C(=O)N1C1(C(=O)NC2(C(=O)O)CCCC2)CCCC1`: the GI50 is inactive: > 100 µM. Take `CC(C)c1ccccc1[S+]([O-])c1ccccc1C(C)(C)O` (stereo not drawn): the GI50 was inactive: 34.6 µM. As for `CN(C)CCCc1cccnc1`, the GI50 was inactive: > 100 µM. For the compound `Cn1c(=O)c2nc(SCCN3CCOCC3)[nH]c2n(C)c1=S`, the GI50 is inactive: > 100 µM. As for `Nc1nc(N)c(Cn2ccnc2)c(O)n1`, the GI50 was inactive: > 100 µM. Turning to `COc1cc2c(OC)c3cc(C)oc(=O)c3c(O)c2c(O)c1-c1c(OC)cc2c(OC)c3cc(C)oc(=O)c3c(O)c2c1O`, the GI50 is inactive: 18.8 µM. As to `Cn1c(=O)c2c(nc3n2CC(C(=O)O)N3)n(C)c1=O` (stereo not drawn), the GI50 is inactive: > 100 µM. Turning to `CC(/C(=N/NC(=O)C(N)=O)c1c(Cl)ccc(Cl)c1O)C1(O)C(=O)Nc2ccccc21` (stereo not drawn), the GI50 was inactive: 44.1 µM. In the case of `Cc1c2nc3ccccc3sc-2cc(=O)c1C` it was inactive: > 100 µM; in that of `COC(=O)C1=CC2C(=O)OC1CC2C#N` (stereo not drawn), inactive: > 100 µM; in that of `CC(C)C(=O)Nc1nc2[nH]cnc2c(=O)[nH]1`, inactive: > 100 µM. The figure for `COC1/C=C/C(C)C(O)CC(O)/C=C/C(C)C(C(C)C(OC)C(C)CCC(=O)C(C)C(C/C=C/N(C)C=O)OC)OC(=O)/C=C/C=C(\C)CC(OC)CC2=CC(=O)O[C@@H](C(C)C(OC)C1)[C@H]2O` (stereo partly drawn) is active: 0.00883 µM; for `N#CN1C2CCC1CC(=O)C2` it is inactive: > 100 µM; for `CCCCOCn1c(=O)[nH]c(=O)c2ccccc21` it is inactive: > 100 µM. Turning to `CC1=C(C2=C(C)C(=O)C(=O)c3cc(C)ccc32)c2ccc(C)cc2C(=O)C1=O`, the GI50 was inactive: 1.69 µM.

For `COc1ccc(/C=C/c2sc3ccccc3[n+]2CCCCI)cc1OC`, the GI50 was inactive: > 10 µM.

Consider `CN(C)CCC(=O)N1C/C(=C\c2ccc(Cl)c(Cl)c2)C(=O)/C(=C/c2ccc(Cl)c(Cl)c2)C1`, for which the GI50 was active: 0.509 µM. As to `Cn1c2ccccc2n2c(N=O)c(-c3ccccc3)nc12`, the GI50 is inactive: 19.9 µM. On to `COc1cccc(CC2C(=O)N/C(=N\C(C)=O)N2C)c1OC(C)=O` (stereo not drawn), for which the GI50 is inactive: > 100 µM. For `NC(=O)C(=CNC(=S)c1ccncc1)C(N)=O`, the GI50 was inactive: > 100 µM. For `COC(=O)c1c(O)ccc2c1c1c(n2Cc2ccccc2OC)C(=O)c2ccccc2C1`, the GI50 is inactive: > 100 µM. Regarding `Cc1c(OCc2cccc3ccccc23)ccc2c(O)cc(=S)oc12`, the GI50 is inactive: 31.6 µM. As to `O=[N+]([O-])/C=C/c1cccc(F)c1`, the GI50 was inactive: 15.7 µM. Regarding `Cc1ccc(S(=O)(=O)NC(=O)NCC(=O)O)cc1`, the GI50 was inactive: > 100 µM.

For the compound `O=C(/C=C/c1ccc2ccccc2c1)NCc1ccc(C(=O)NCCc2ccccc2)cc1`, the GI50 is inactive: > 100 µM.

For the compound `Cn1c2ccccc2n2c3ncccc3c(=O)c(C#N)c12`, the GI50 was inactive: 22.2 µM. With `COc1cc(Br)c(OC)c2c(OC)cc(C)cc12`, the GI50 was inactive: > 100 µM.

Take `CCCCCC(=O)OC[n+]1ccc2c(C)c3[nH]c4ccc(OC)cc4c3c(C)c2c1`: the GI50 was active: 0.252 µM. In the case of `CC1=C(C(=O)CC(=O)C(=O)NC2C3CC4CC(C3)CC2C4)Sc2ccccc2N1` (stereo not drawn) it was inactive: > 100 µM; in that of `CCn1c(SCC(=O)NNC(=S)NC)nc2ccccc2c1=O`, inactive: > 100 µM. The figure for `CCOC(=O)c1ccc(-c2ccc(Cl)cc2)[nH]1` is inactive: > 10 µM; for `[N-]=[N+]=Nc1c(N2CCOCC2)c(Cl)nc2ccccc12` it is inactive: 95.9 µM.

With `CSc1ccc(C2C(Cl)C(=O)N2NC(=O)c2c(Cl)c(Cl)c(Cl)c(Cl)c2-c2nc3ccccc3[nH]2)cc1` (stereo not drawn), the GI50 was inactive: 30.4 µM.

As to `NC(CCC(=O)NC(CSCC1C(=O)Nc2ccccc21)C(=O)NCC(=O)O)C(=O)O` (stereo not drawn), the GI50 was inactive: 13.2 µM. `COc1cc2oc(-c3ccc4c(c3)OCO4)c(OC)c(=O)c2c(O)c1OC`: the GI50 is inactive: > 50 µM. For `COC(=O)/C=C(\S/C(=C(/c1ccc(OC)cc1)n1cc(C(=O)OC)c(C(=O)OC)n1)c1ccc(OC)cc1)C(=O)OC`, the GI50 is inactive: > 100 µM. On to `CCCCCCCCCCCCOCC1(COCCCCCCCCCCCC)COC(c2ccc(N)cc2)OC1`, for which the GI50 was inactive: > 100 µM. Regarding `O/N=C1/C(=C/c2ccc(Cl)c(Cl)c2)CCCC1C(NO)c1ccc(Cl)c(Cl)c1` (stereo not drawn), the GI50 was inactive: 14.4 µM. Take `CCOP(=O)(Nc1ccccc1P(=O)(OCC)OCC)OCC`: the GI50 is inactive: > 100 µM. On to `Cc1ccc(C(=O)C2C=C(c3ccc(C)cc3)SC3C=CCC32)cc1` (stereo not drawn), for which the GI50 was inactive: 27.9 µM.

As to `CCOC(=O)c1c(N2CCCC2)nsc1Nc1ccc(F)cc1`, the GI50 is inactive: 75.3 µM. On to `NC(CSSCC(N)Cc1ccccc1)Cc1ccccc1` (stereo not drawn), for which the GI50 is inactive: 74.6 µM. Turning to `O=C1C(Cl)=C(N(C(=O)c2ccccc2)C(=O)c2ccccc2)C(=O)c2ccccc21`, the GI50 is inactive: > 100 µM. Turning to `CN1CCC(O)C(CNC23CC4CC(CC(C4)C2)C3)C1` (stereo not drawn), the GI50 is inactive: > 100 µM. As to `CCOC(=O)C1C(c2ccccc2)=C(c2ccccc2)C(c2ccccc2)=C1c1ccccc1`, the GI50 was inactive: 82.2 µM. For the compound `c1cncc(C2c3[nH]c4ccccc4c3CCN2CCCN2CCCCC2)c1` (stereo not drawn), the GI50 is inactive: > 100 µM. Take `Cc1cccc2sc(-c3ccc(O)cc3)nc12`: the GI50 is inactive: 16.5 µM. In the case of `C#CCCCC(=O)N(C(=O)C[S+]([O-])CC)c1ccccc1` (stereo not drawn) it was inactive: > 100 µM; in that of `BrC1(Br)C2/C=C\CCCCC21` (stereo not drawn), inactive: > 100 µM. For `COC1Cc2c(C)c(OC(C)=O)c3cccnc3c2O1` (stereo not drawn), the GI50 is inactive: 56.9 µM. In the case of `CC(CNC(=O)c1ccccc1)(CNC(=O)c1ccccc1)[N+](=O)[O-]`, the GI50 is inactive: > 100 µM. For the compound `CCC1(O)CC(c2ccccc2)N(C)C(c2ccccc2)C1` (stereo not drawn), the GI50 is inactive: > 100 µM.

In the case of `CCc1c(-c2coc(CC/C(C)=C/c3ccccc3)n2)oc(OC)c(C)c1=O`, the GI50 was inactive: > 100 µM. In the case of `CCc1nc2c([nH]1)C(=O)c1ccccc1C2=O`, the GI50 is inactive: 73.1 µM. With `O=C(O)COc1ccc(C(=O)/C(SS/C(C(=O)c2ccc(OCC(=O)O)c(Cl)c2Cl)=C2\C=C(c3ccc(Cl)cc3)SS2)=C2/C=C(c3ccc(Cl)cc3)SS2)c(Cl)c1Cl`, the GI50 is inactive: 92.3 µM. `CCOC1NC(=O)Oc2cc3ccccc3cc21` (stereo not drawn): the GI50 was inactive: 68.7 µM. Regarding `C[C@]12CC[C@H]3[C@@H](CC=C4C[C@@H](O)CC[C@@]43C)[C@@H]1C/C(=C/c1ccccc1)[C@@H]2O`, the GI50 is inactive: 22.9 µM. On to `CC[C@H]1[C@@H](C)C=C[C@@H](C)N1S(=O)(=O)c1ccc(C)cc1`, for which the GI50 is inactive: > 100 µM. Consider `CCOC(=O)N1CCN(c2nc(C)n(-c3ccccc3)c(=S)c2C#N)CC1`, for which the GI50 was inactive: > 64.1 µM. As for `O=C(NCCNCCO)c1cccc2ccc(-c3ccccc3)nc12`, the GI50 was inactive: 5.4 µM. Turning to `COc1ccc(-c2cc(-c3ccc(C)cc3)n(C3OC(COC(C)=O)C(OC(C)=O)C(OC(C)=O)C3OC(C)=O)c(=S)c2C#N)cc1` (stereo not drawn), the GI50 is inactive: > 100 µM. In the case of `CC1(C)NC(C(=O)c2ccccc2)=[N+]([O-])C1(O)c1ccccc1` (stereo not drawn) it was inactive: > 100 µM; in that of `CCOC(=O)c1nc2ccc(Cl)cc2c2c1Cc1ccccc1-2`, inactive: > 100 µM; in that of `O=C1CN2Cc3cc(N4CCOCC4)ccc3N=C2N1`, inactive: 61.9 µM.

For `CCOC(=O)c1ccc(N2C(=S)N(C(=O)c3ccccc3)C(=N/c3ccccc3)/C2=N\c2ccccc2)cc1`, the GI50 was inactive: > 100 µM.

Regarding `Nc1nc(-c2ccccc2/N=N/N2CCCC2)nc2ccccc12`, the GI50 was inactive: 1.98 µM. In the case of `CCC1(CN(C)C)CC/C(=C\c2ccc3c(c2)OCO3)C1=O` (stereo not drawn), the GI50 was inactive: > 100 µM. In the case of `CC1(C)[C@H]2Cc3cc(-c4cc5c(cn4)[C@@H]4C[C@H]([C@@H]5[C@@H]5c6cc(-c7cc8c(cn7)[C@@H]7C[C@H](C8)C7(C)C)ncc6[C@@H]6C[C@H]5C6(C)C)C4(C)C)ncc3[C@@H]1C2`, the GI50 was inactive: > 100 µM. In the case of `COC(=O)C1=C(O)C(C(=O)OC)[C@]2(O)[C@H](C(=O)OC)[C@H]1C[C@@H](c1c(Cl)cccc1Cl)[C@H]2C(=O)OC` (stereo partly drawn), the GI50 was inactive: 3.78 µM. On to `O=C(O)c1ccc(NNC(=O)c2cccc3c(=O)c4ccccc4[nH]c23)cc1`, for which the GI50 is inactive: 71.9 µM. Take `N#CC1=C(N2CCCC2)NC(=O)CC1=O`: the GI50 is inactive: > 100 µM. As for `O=C1Nc2ccccc2/C1=N/Nc1nc(-c2ccc(Cl)c(Cl)c2)cs1`, the GI50 is inactive: > 100 µM. Turning to `Nc1nc(N)c2ncn(CCOC(c3ccccc3)P(=O)(O)O)c2n1` (stereo not drawn), the GI50 was inactive: > 100 µM. `C=C[C@H]1C=Cc2c(OC)cccc2[C@@H]1COP1(=S)NC(C)C(c2ccccc2)O1` (stereo partly drawn): the GI50 was inactive: > 100 µM.

For the compound `CCOC(=O)N[C@@H]1C(CC(=O)OC)O[C@H]2OC(C)(C)O[C@H]21` (stereo partly drawn), the GI50 was inactive: > 100 µM.

Regarding `COC(=O)OC[C@H]1O[C@@H](n2cc(C)c(=O)[nH]c2=O)CC1OC(=O)OC` (stereo partly drawn), the GI50 is inactive: > 100 µM. Regarding `CC#CC1/C(=C\C(=O)OC)CCCC1O` (stereo not drawn), the GI50 was inactive: > 100 µM.

`NC(CCP(=O)(O)O)C(=O)O` (stereo not drawn): the GI50 was inactive: > 100 µM. The figure for `CCN(CC)CCCCC1CCN(CC(=O)N2c3ccccc3NC(=O)c3ccccc32)CC1` is inactive: 81.8 µM. `C=CCOc1cc2c(cc1C(C)c1ccc(OC)cc1)OCO2` (stereo not drawn): the GI50 is inactive: 2.3 µM.

Take `COC(=O)c1cc(OC)c(OC)c(OC)c1-c1cc2c(cc1C=O)OCO2`: the GI50 is inactive: > 10 µM.
